Measurements published in PubChem BioAssay AID894 (National Center for Advancing Translational Sciences (NCATS), 2007).
Out of some 150,000 compounds screened, about 6,500 (4.3%) were called active. This list was built around the results that the source calls inconclusive (neither active nor inactive); the mix of calls is not that of the screen. Calls come from the whole dose curve; as a rule, active = well fitted inhibition curve with a large enough effect (not every such curve was filed as active); inconclusive = small, poorly fitted or top-dose-only effect, or another doubt; inactive = no such curve, though single readings can be large or run the other way. Potencies of inconclusive entries are doubtful fits and often do not repeat.

biological target: 15-hydroxyprostaglandin dehydrogenase [NAD(+)] (Homo sapiens) (UniProt P15428); assay: qHTS Assay for Inhibitors of HPGD (15-Hydroxyprostaglandin Dehydrogenase); settings: purified HPGD, NADH fluorescence kinetic, PGE2 substrate; activity change, negative = inhibition: active compounds read low
Outline: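 20 nM HPGD preincubated 15 min at room temperature with compound in 50 mM Tris-HCl pH 8, 0.01% Tween 20. Started with 1 mM NAD+ and 30 uM prostaglandin E2; NADH fluorescence (360/450 nm) read 5 times over 30-s intervals, last minus first.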
% is set by controls: 0 for no effect and ±100 for the full control effect; potency is the fitted concentration of half-maximal effect; tags give direction and shape of the fitted curve.

UniProt P15428, sequence (P15428 whole entry, looked up): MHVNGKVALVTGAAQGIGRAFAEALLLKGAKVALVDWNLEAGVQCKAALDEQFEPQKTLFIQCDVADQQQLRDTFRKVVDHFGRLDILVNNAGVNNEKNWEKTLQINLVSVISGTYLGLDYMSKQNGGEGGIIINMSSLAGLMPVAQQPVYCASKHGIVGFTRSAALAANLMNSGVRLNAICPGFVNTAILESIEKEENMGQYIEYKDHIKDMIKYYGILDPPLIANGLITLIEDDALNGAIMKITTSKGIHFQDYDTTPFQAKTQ

Activity change, negative = inhibition, inactive:
C/C(=C\C(=O)c1ccccc1)Nc1ccc(O)cc1 -7.66%, C=C(C)CNC(=S)N/N=C(\C)c1ccc(Cl)s1 -17%, CCOc1ccccc1N(CC(=O)OC)S(C)(=O)=O -6.71%, CN1C2CCC1/C(=C\c1ccc(F)cc1)C(=O)/C2=C/c1ccc(F)cc1 -3.65%, Nn1c(SCC(=O)Nc2ccc3c(c2)OCO3)nnc1-c1cccc(Cl)c1 -6.33%, O=C(O)C[C@H](Cc1ccc2c(c1)OCO2)C(=O)O -2.6%, CCOC(=O)c1c(NC(=O)C(C)Sc2cn(C)c3ccccc23)sc2c1CCC2 (stereo unspecified) -11.6%, COc1ccc(C=Nc2c(O)ccc3ccccc23)cc1OC -25.2%, Cc1ccccc1NCCNc1ccccc1C -12.1%, COc1ccc(-n2c(CNC(=O)c3ccc(S(=O)(=O)N4CCCC4)cc3)n[nH]c2=S)cc1 -7.42%

Potency, inconclusive:
CC(=O)Nc1ccc2oc(-c3cc(F)c(F)cc3Cl)nc2c1 8.91 µM [inhibitor, partial curve], Cc1nn(-c2ccc(Cl)cc2)c2sc(C(=O)N3CCN(c4ccccn4)CC3)cc12 31.6 µM [inhibitor, partial curve], O=C(CN1CCOCC1)N1CCCc2c1c(=O)oc1ccc(OCc3ccccc3)cc21 28.2 µM [inhibitor, partial curve], COc1ccc(/C=C/c2nnc(NC(=O)COc3ccc(C)cc3)s2)cc1 20 µM [inhibitor, partial curve], CC(C)(C)c1ccc(C(=O)N2CCC(=O)N(C(CO)Cc3ccccc3)CC2)cc1 (stereo unspecified) 22.4 µM [inhibitor, partial curve, poor fit], Cc1ccccc1NC(=O)C(C)O/N=C/c1cccc([N+](=O)[O-])c1 (stereo unspecified) 31.6 µM [inhibitor, single point], Cc1ccc(/C(N)=N/OC(=O)c2ccc(Cl)cc2Cl)cc1 28.2 µM [inhibitor, partial curve, poor fit], Cc1cc(C)nc(SCc2nnc(SCC(=O)Nc3cc(C(F)(F)F)ccc3Cl)o2)n1 35.5 µM [inhibitor, single point]

Potency, active:
Oc1ccc(/C=N/n2cnn(Cc3ccccc3Cl)c2=S)c(O)c1 20 µM, C=CCSc1nnc(NC(=O)c2ccc(S(=O)(=O)NCC3CCCO3)cc2)s1 (stereo unspecified) 17.8 µM, c1ccc(OCc2nn3c(Cn4nnc5ccccc54)nnc3s2)cc1 8.91 µM
